Measurements reported in the supplement of paper PMC3334620.
Whole data set: some 33,000 sequences, median “E-score (-0.5 to 0.5)” near -0.053, cut for the highest 2% near 0.37. The list shows a part of the results.

Each sequence was assayed against Hap1 (UniProt P0CE41) (assay: PBM E-score (8-mer binding enrichment) (E-score (-0.5 to 0.5)); higher = stronger / more preferred TF binding; most listed sequences are background and not binding sites). Details: protein concentration: 200 nM; construct: GST-DNA-binding domain.
Experimental: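 Universal 'all 10-mer' protein binding microarrays (Agilent AMADID 015681) probed with GST-tagged S. cerevisiae TFs (full-length or DBD) made by in vitro transcription/translation (PURExpress), about 100-200 nM. Bound TF was detected with fluorescent anti-GST. Each ungapped 8-mer (which stands for itself and its reverse complement) is scored by the PBM enrichment score (E-score), a modified Wilcoxon-Mann-Whitney statistic from -0.5 to +0.5, computed with the Universal PBM Analysis Suite. Scale: above 0.35 generally sequence-specific binding.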

Sequence of UniProt P0CE41 (P0CE41 whole entry, the tested form may be a part): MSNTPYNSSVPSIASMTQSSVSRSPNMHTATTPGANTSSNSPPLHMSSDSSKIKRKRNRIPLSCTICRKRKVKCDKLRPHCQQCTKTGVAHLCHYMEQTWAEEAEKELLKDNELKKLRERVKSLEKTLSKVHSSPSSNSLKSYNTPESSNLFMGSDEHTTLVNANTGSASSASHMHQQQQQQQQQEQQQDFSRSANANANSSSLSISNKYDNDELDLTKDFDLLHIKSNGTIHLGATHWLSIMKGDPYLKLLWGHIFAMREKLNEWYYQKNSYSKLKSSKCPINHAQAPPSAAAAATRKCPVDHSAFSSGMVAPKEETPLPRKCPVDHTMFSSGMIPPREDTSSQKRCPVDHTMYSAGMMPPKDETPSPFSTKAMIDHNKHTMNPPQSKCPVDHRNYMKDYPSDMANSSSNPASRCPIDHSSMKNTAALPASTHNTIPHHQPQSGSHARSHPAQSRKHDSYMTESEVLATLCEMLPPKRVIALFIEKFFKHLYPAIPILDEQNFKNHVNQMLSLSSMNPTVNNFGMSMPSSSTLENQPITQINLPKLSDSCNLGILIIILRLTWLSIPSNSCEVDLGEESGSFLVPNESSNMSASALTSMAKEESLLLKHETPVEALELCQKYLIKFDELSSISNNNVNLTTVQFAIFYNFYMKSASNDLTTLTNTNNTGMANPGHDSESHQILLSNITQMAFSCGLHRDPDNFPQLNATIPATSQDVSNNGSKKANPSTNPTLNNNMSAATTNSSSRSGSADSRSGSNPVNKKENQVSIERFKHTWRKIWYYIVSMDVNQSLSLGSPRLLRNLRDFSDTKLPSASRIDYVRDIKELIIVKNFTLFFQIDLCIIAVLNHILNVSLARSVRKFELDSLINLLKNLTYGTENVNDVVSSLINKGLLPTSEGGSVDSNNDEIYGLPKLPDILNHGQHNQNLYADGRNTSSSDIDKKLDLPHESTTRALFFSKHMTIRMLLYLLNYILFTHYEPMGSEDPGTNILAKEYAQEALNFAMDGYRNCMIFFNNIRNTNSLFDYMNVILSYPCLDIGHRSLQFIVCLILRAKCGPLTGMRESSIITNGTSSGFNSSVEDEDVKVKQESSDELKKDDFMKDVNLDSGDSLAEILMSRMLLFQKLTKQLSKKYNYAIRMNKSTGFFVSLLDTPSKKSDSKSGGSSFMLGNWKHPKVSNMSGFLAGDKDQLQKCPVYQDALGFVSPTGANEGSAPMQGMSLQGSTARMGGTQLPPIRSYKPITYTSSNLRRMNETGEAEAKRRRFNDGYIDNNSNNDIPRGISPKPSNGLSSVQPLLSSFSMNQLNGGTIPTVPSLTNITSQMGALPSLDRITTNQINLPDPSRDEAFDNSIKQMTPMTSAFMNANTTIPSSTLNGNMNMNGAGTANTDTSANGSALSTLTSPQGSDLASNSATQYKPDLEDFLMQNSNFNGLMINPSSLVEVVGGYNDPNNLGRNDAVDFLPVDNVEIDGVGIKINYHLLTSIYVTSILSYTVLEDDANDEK

Sequence | PBM E-score
CCTGGTGC | -0.0907
AGTCCCAG | -0.0617
AAAAAATT | 0.0584
CCGTTAAC | 0.367
GGGCCGCA | 0.196
AGTTGGAC | -0.0691
CTCCTTGA | -0.0807
ACCAAGCT | -0.305
GGCAATCA | 0.0187
CATGTTGG | -0.212
CACCAGGG | -0.26
ACGAGTAT | -0.113
AAATGAAG | -0.123
AACGCGCA | -0.102
ACTGCTGA | -0.271
ACAAACCA | -0.171
ATACCCTG | -0.0146
AGAATAAG | -0.0603
GCCATCTA | -0.127
CCTGTAGA | -0.0406
AGATCAAA | -0.0404
CTAAGCCA | -0.187
CTGAGTAA | -0.225
ATAATAAC | 0.137
ACTCCACG | -0.0489

Sequence | PBM E-score
ACAGGGGA | -0.273
AGTCAGCA | -0.219
CCTTGTCC | 0.0758
TACGTGGA | 0.0421
CGTTGAAG | -0.229
CTCTGCTC | -0.113
AGCTTAAT | 0.073
CCTCTAGA | -0.191
ATACTTGC | -0.153
GCGAGTAC | 0.0106
CCGAGGCC | 0.295
CAACTGTC | -0.266
ATACTTCC | 0.162
GACTGGGC | -0.135
GAATACTC | -0.104
ACGTGGGG | -0.0763
ATACGAGA | -0.23
GCGAGGTA | -0.00955
CGATCTGC | 0.156
GTCGATGA | -0.0213
AGGTCAGA | -0.2
ATGCTCGG | 0.362
TTAGTCAA | -0.177
CTCCCGGC | 0.33
AAACGTCT | -0.233

Sequence | PBM E-score
CGTTGTCA | -0.0765
AAGTGGAT | -0.0429
CCGTGACA | 0.131
AGGCTTTG | -0.107
CGGGTGGC | 0.152
GATCTGTA | -0.0449
GTATCTGA | -0.096
AGGTCATG | -0.226
AACAGTGA | 0.0381
GTACAGTA | -0.0509
AGTCACAG | -0.319
CCCCCGCA | -0.115
CAGAAAGG | -0.156
TTACGCAA | -0.0446
AACGCATA | -0.0635
CTGTGTTC | -0.19
CAATACCC | 0.189
TCCGAAGA | 0.419
CGCAATAG | 0.0177
CGATGGCA | 0.148
ACCGACGG | 0.38
CAGGGAAG | -0.235
CGGAGAAC | 0.36
TACGCTCA | -0.241
GTGATAAA | 0.0398

Sequence | PBM E-score
GCGTCCAA | -0.256
TGGCGAAA | 0.112
TAGCACAA | -0.249
CTTCAATA | -0.191
CTTAATAC | -0.103
ACCTCTCC | -0.13
AAAGATCG | 0.0407
CGTCTCAG | -0.243
AACTCGAG | -0.0394
GAAGGGAA | -0.0885
GAATTTGA | 0.147
TAAGACTA | -0.234
GAGAATCC | 0.112
CAGGGTCC | -0.191
ACGATGTA | -0.127
CAGATTAC | 0.0095
CGATGATA | 0.0471
CGAGCGTA | 0.0531
CATAGCTC | -0.09
ACAGTGGA | -0.0195
GAGTGTCA | -0.145
AGAGTGCA | -0.195
TAGACGAA | -0.357
AAGAACCC | -0.106
ACCATAAA | -0.0487

Sequence | PBM E-score
CCCAATAC | -0.153
ATTTACCC | 0.0884
GGAGTGTA | 0.0459
GCCCACCA | -0.215
CCCAAGCG | -0.0424
AACTTGTA | -0.143
ATTAACAC | 0.0953
CTTTGGTA | -0.0756
AGGAACGG | 0.111
CTTAAAGA | -0.147
CATAACAG | -0.173
TAGCCAGA | -0.148
AGCTAATC | -0.0948
GTCCACGA | -0.116
GGAGCTAC | 0.0083
AGAGTCTG | -0.367
ACGCTCGC | -0.123
TGTTACAA | -0.0917
GTACTCGA | -0.152
CATATGAA | 0.0276
GAGATCTA | -0.105
AATTGTAA | -0.207
ACAGGGAA | -0.168
AGCCCAGC | 0.043
GAAACCTA | -0.0569

Sequence | PBM E-score
AAGATTAA | -0.0677
GACCCTTA | 0.0366
CATTCCTC | 0.0608
AAGCTACA | -0.191
ATGCTTAA | 0.0955
CATCACGC | 0.133
CAAGCCTG | -0.218
ATGTTGCC | 0.117
GCGTTCAC | 0.102
ACTACAGT | -0.265
TCATGTAA | -0.138
AAATGCGT | 0.0449
AGCGGCCC | 0.129
GAGTCTGA | -0.227
CATAGACA | -0.215
ATTTGTAC | -0.115
CGTCTCAC | -0.143
AATGCAAG | -0.0791
CAATCCGC | 0.191
CGAGAGAC | -0.00248
GCGAGTGA | -0.121
AACATCAA | -0.0229
TGGTAAAA | -0.0559
ACTAAGAT | -0.0143
CGTAGGTC | 0.0601

Sequence | PBM E-score
ATAGAGGG | 0.0305
ACTTCTCC | 0.22
ATACCTAT | -0.118
TATTGCGA | 0.0517
CTGGTATA | -0.276
TCCCGCCA | -0.0362
GGCTTATA | 0.0382
ACCGAGTA | 0.278
ATTGGGCG | -0.0404
AATCACGC | -0.0489
CTATTTAC | 0.0663
ATATATTG | 0.0696
GAGCTGAA | -0.106
CCAGTTTC | -0.0309
TTCTCAAA | -0.166
CACCCAGG | -0.184
CCACGGAG | 0.295
AAGCTAAG | -0.096
TCCAAGAA | -0.125
ATTTTGGG | -0.203
CAAACTTA | -0.00381
CACATACA | -0.282
AACTACCA | -0.224
GGTCGTCA | -0.0969
CACCACGG | 0.0095

Sequence | PBM E-score
GCTCTGCA | -0.253
AAGCTTAA | 0.0231
CTAAACCC | 0.227
ATTATTAG | -0.0256
GGTCTCAA | 0.0617
AGCATGCT | -0.351
CGACACAG | -0.0602
CCCAACAA | -0.105
CTAGATCC | 0.0983
CCTAAACC | 0.129
GCCTGTGA | -0.279
GTCGTCAC | -0.0951
ACGGTGAA | 0.16
ATTAGGTC | 0.108
AGCACTTA | -0.129
TAGTACTA | -0.319
GTTGTTCA | -0.168
GAATTAAA | 0.0797
ACCGCCGG | 0.365
CTACGTTA | 0.00803
TACATGAA | -0.123
CACCTCGG | 0.35
ACTGGACT | -0.0692
GGAACTCC | 0.177
AGGACATA | -0.187

Sequence | PBM E-score
GTCCTGTA | 0.0805
GACATAAA | -0.0262
GTATCCTA | -0.0588
CACAGACG | -0.129
TAGTTTCA | -0.024
GTAAATAA | -0.129
GACAGTCA | -0.139
AGTAGCTC | -0.0947
ATATGCCG | 0.27
TGCCAGAA | -0.217
GAGAAGAA | 0.00165
ACTGAGAG | -0.135
AGCGATTG | -0.162
ACTTCTAA | 0.0378
GCCCGTCC | 0.187
TACTTGCA | -0.0804
ACGGTACG | 0.0968
GGGTCTGA | -0.0333
CCTACATA | -0.0943
AGTCGAAA | -0.126
AGGTTCTG | -0.204
GTGGCATA | -0.0922
GATACACA | 0.0335
CATTTTGG | -0.129
CTAAATCA | -0.138

Sequence | PBM E-score
AGAAATAG | -0.138
GTACCCGA | 0.188
ACACTGCT | -0.3
CTCTCCGA | 0.203
ACGGAGCG | 0.202
AACAGAAT | -0.202
GTATTCAA | 0.00806
GAAAGAGA | -0.0478
ACCGTCCC | 0.141
CTTCTAGA | -0.156
ATCCGCTG | 0.154
AACTTCCG | 0.367
ACTTTAAT | -0.0811
ATGCAGTA | 0.0746
ACTCGTGA | -0.242
CGTCCCGC | 0.079
AACGTTCG | -0.0284
AAGATAGC | 0.117
AAGCTTTG | 0.0102
ATGTGAGC | -0.232
TCAGGTCA | -0.145
CCGGGTGA | 0.35
AAGTGCGT | -0.0316
CTCGGCAG | 0.267
AAGCACCT | -0.156

Sequence | PBM E-score
GCATAAAA | 0.0349
CACCTGCG | -0.00451
ATATTGGC | -0.00358
AAGGCAAT | 0.0609
ATAGCCTG | -0.295
AAGCCCAG | -0.198
GGTGTTGA | -0.0742
CGCCCCGC | 0.227
ACATAGAC | -0.0947
ACACATCC | 0.0838
GACTGCAA | -0.375
AACGTACT | -0.141
TCCAATAA | 0.00964
AAAAGGCA | -0.00641
AAAGTGCT | -0.21
AGCACCGA | 0.341
ATACTGGA | 0.0876
AAAGGATT | -0.143
CAACCACA | 0.00922
CTGACAAA | -0.216
ATTAAGAC | -0.107
CCTGATTC | -0.186
ATATCACG | -0.0241
CGCATAAA | -0.0638
GCACTCAA | -0.0427

Sequence | PBM E-score
TGTACACA | -0.34
ACCCCGGA | 0.37
ATTTCTAC | 0.0329
ACTACTTG | -0.189
AACTTAAC | 0.118
GCACGTGA | -0.273
GAAGCACA | -0.0961
CAATCCCG | 0.272
ATACCGTG | 0.0634
CCCCGGGG | 0.388
ACCTGGGC | -0.233
GGTTGAAC | -0.0103
CATTAACG | 0.188
AAGAATCA | -0.0768
GCGTGTCC | 0.0514
ACACATGT | -0.0606
CATTCAGA | -0.141
ATCCGCTA | 0.306
CCAATTCC | -0.0102
ATTATCGC | 0.132
CGGAAAAA | 0.4
AACTGTGG | -0.249
AGGCAGGC | -0.133
ATGGACAA | -0.228
AGGGTATG | -0.275

Sequence | PBM E-score
ACCAGAAC | -0.0565
ATTTAACA | -0.0502
AGAAAGGA | -0.0267
AATCAAAT | 0.0445
CGCGTCAG | -0.145
GAGAGGAA | -0.12
ATACTCAT | -0.119
ACCGGGGA | 0.284
ACACTGCA | -0.12
ACGTTTGG | -0.208
AGCCAACC | -0.0215
AAGACGAC | -0.0829
TGAGATCA | -0.0889
CTTCTTCC | -0.0305
CTAGAGTC | -0.368
AGAGACTC | -0.274
CGAGTGCG | 0.151
AAGGCATC | -0.19
CTAAAGCA | 0.00108
ATGTATCG | 0.179
ATCAGGTG | -0.0187
GTGTAAAC | -0.0992
CCCCTCCG | 0.232
AACCAATA | -0.14
AAGTGTTG | -0.0459

Sequence | PBM E-score
AACGAACC | -0.185
TACAGTCA | -0.288
TGCCCCCA | -0.31
CCAGTTGC | -0.172
ATCATTAA | 0.191
TGAGAGCA | -0.182
ACAGCGAA | -0.114
ACCGTTCG | 0.0834
CATCAGCA | -0.246
CGTGGCTA | -0.173
GATCCATC | 0.149
AATCAATA | 0.0483
CATTGGGA | -0.188
ACGAAGAC | -0.133
CGCTCTGA | -0.102
CCCCGGTC | 0.349
ATAAATCC | 0.325
CCCGATTC | 0.292
AACAAAGT | 0.00728
